Source: the supplement of paper PMC3334620
In all, about 33,000 sequences were measured (“E-score (-0.5 to 0.5)”: median about -0.032, highest 2% from about 0.36 on). Some of the results follow.

These sequences were tested against T1, Sko1 (UniProt Q02100) (assay: PBM E-score (8-mer binding enrichment) (E-score (-0.5 to 0.5)); higher = stronger / more preferred TF binding; most listed sequences are background and not binding sites). Conditions: protein concentration: 200 nM; construct: GST-full length.
T1 sequence: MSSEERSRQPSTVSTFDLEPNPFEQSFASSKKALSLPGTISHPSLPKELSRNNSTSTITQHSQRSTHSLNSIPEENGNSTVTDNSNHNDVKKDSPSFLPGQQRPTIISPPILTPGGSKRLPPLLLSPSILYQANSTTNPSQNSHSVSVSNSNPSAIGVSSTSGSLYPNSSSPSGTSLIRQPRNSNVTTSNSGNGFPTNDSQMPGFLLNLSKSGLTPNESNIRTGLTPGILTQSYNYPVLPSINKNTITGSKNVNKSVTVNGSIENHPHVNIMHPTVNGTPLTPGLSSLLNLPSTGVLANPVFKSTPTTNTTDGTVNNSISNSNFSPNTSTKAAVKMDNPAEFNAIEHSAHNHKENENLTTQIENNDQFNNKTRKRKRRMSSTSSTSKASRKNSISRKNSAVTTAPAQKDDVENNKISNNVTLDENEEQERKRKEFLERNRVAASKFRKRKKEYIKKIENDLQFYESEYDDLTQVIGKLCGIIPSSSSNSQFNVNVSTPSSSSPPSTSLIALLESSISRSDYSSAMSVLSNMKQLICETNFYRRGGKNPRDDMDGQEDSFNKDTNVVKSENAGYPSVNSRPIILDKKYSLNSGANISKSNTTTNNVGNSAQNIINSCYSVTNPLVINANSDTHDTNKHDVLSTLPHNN
Method in brief: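 The E-score, a modified Wilcoxon-Mann-Whitney statistic, was computed by the Universal PBM Analysis Suite for every ungapped eight-base word pooled with its reverse complement. Scans behind it were normalised with masliner after bound GST-tagged yeast transcription factors were detected with fluorescent anti-GST. The proteins, at about 100-200 nM, had been applied to universal all-10-mer Agilent arrays made double-stranded by primer extension.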

Row | Sequence | PBM E-score
1 | AAATGCCT | -0.0889
2 | GACATGTA | 0.146
3 | CATCTAAA | 0.0852
4 | AATATCCT | 0.00379
5 | GTCCATAA | -0.0368
6 | ATCCGGTC | -0.218
7 | CCGGTCAG | -0.324
8 | ACTAGGTG | -0.208
9 | AGCGCCCA | -0.272
10 | GAAGTGAA | -0.0799
11 | GTCCGCTA | -0.135
12 | ATTAGGTA | 0.354
13 | GCGCCGCA | -0.129
14 | ATCTTACC | 0.0235
15 | GCATAGGA | -0.046
16 | ATCTCCCA | -0.133
17 | GCGCATAA | 0.0577
18 | CAGAGTAC | -0.0565
19 | ACGTCTTA | 0.408
20 | GCTAAAAA | -0.0445
21 | AGAATCTG | -0.0035
22 | CACGCATA | 0.0358

Row | Sequence | PBM E-score
23 | CCGCGGCC | -0.206
24 | CGCTGCCG | -0.257
25 | TAACTAAA | 0.141
26 | GACGGGCC | -0.196
27 | CAACGCTG | -0.0634
28 | TGCCTAAA | 0.0424
29 | AGCGTTTA | 0.00426
30 | AGTGCTCC | -0.154
31 | AACCGATT | -0.0469
32 | CGAACCAC | -0.139
33 | GAGTAATC | 0.0265
34 | GCTGGACC | -0.273
35 | GTAAATCA | 0.157
36 | AAAATGTT | 0.177
37 | ATGTATCA | 0.226
38 | AGAATCAG | -0.0239
39 | GATAGCAC | -0.11
40 | CAGGCATA | -0.0996
41 | GACTGCTC | 0.00729
42 | CGGAACAG | -0.228
43 | GAAGCCGC | -0.211
44 | TCCCACCA | -0.211

Row | Sequence | PBM E-score
45 | AAGTACGA | 0.201
46 | GGGACGGA | -0.351
47 | CACACTAA | 0.178
48 | AGGCTGAA | -0.18
49 | GTGAGCGA | -0.0539
50 | CAGGAGCG | -0.175
51 | CCGTCTCC | -0.189
52 | AAGGGTGA | 0.016
53 | GACCGTGC | -0.0619
54 | ACTCGTAT | 0.198
55 | AGAGACCC | -0.278
56 | ACTTAACT | 0.184
57 | CTCGGGCC | -0.192
58 | CAATGGAC | 0.0791
59 | CTGGGCTC | -0.309
60 | GAGCGAAA | 0.117
61 | CCCAGACC | -0.206
62 | CGAGTCCA | -0.3
63 | ATTTAGCG | 0.0277
64 | ACCACAAC | 0.158
65 | CCGCCCAG | -0.138
66 | GACTGCTA | -0.28

Row | Sequence | PBM E-score
67 | ACTGCATA | 0.0646
68 | GAGCATAC | 0.0798
69 | ACAACCAA | 0.0246
70 | AAAGCTTA | 0.141
71 | CGAATTCC | -0.0114
72 | AGTCCCAC | -0.274
73 | ATGCAATA | 0.166
74 | TCACTTCA | -0.00086
75 | CGAAATAA | 0.233
76 | GCAACAAC | 0.129
77 | AGCACCGG | -0.227
78 | GGTGTAGA | -0.139
79 | GCCTGGCA | -0.326
80 | AATAAAAT | 0.215
81 | ATCTCCAC | 0.0316
82 | AAGCGTTC | -0.207
83 | GATTCCCA | -0.202
84 | AGACATCT | -0.104
85 | AGCATCCT | -0.106
86 | AGACAACA | -0.0177
